# Screen size: about 150,000 compounds; about 540 (0.36%) showed an effect of 50% or more. This is one part of the list.
# System: Plasmodium falciparum
# Assay: Primary screen in NF54 nanoGlo assay, in single point, at 2uM, 72h; a lower Z score goes with more inhibition
# Format: functional, Erythrocyte
# Conditions: timepoint 72 hour
SMILES,% Inhibition [%],Z score
O=C(c1cc2sccc2[nH]1)N1CCC(Nc2nccs2)CC1,-15,2.96
CN(C)C(=O)CN1CCC(NC2CCN(Cc3ccccc3)CC2)C(O)C1 (centres undefined),1,-0.17
CCOc1c(Cl)cccc1CC(=O)N1CCOC2CNCC21 (centres undefined),-3,0.47
CCC(C)C(NC(=O)C1Nc2ccccc2NC1=O)C(=O)NC1CC(C)(C)NC(C)(C)C1 (centres undefined),-2,0.33
CNc1ccnc(N2CC(CO)C(CN3CCC(CO)CC3)C2)n1 (centres undefined),-4,0.75
CC(C)(C)OC(=O)NC[C@H](Nc1cncc(-n2cccn2)n1)C1CCCCC1,8,-1.29
Fc1cc(F)cc(-n2ncc3c2CCC[C@@H]3NC2CCN(Cc3cccnc3)CC2)c1,-9,1.53
CN1CCN(CC2CN(Cc3nc(-c4ccccc4)cs3)CC2CO)CC1 (centres undefined),3,-0.58
Nc1cncc(-c2ccc(C(=O)N[C@@H]3CCC[C@H]3OCc3ccccc3)cc2)c1,-3,0.55
Cn1cc(CNC2CC(C)(C)NC(C)(C)C2)c(-c2cccs2)n1,5,-0.99
Cc1cc(C)n([C@H]2CCN(C(=O)NC3CCN(C4CCN(C)CC4)CC3)C2)n1,-3,0.66
COc1cc(N2CCC(N3CCN(c4ccccn4)CC3)C(O)C2)nc(N)n1 (centres undefined),0,-0.03
O=C([C@@H]1CCCNC1)N1CCC(c2cc(C3CCNCC3)n[nH]2)CC1,0,0.04
COc1cncc(-c2ccc(C(=O)N3CCC4(O)CCNCC4C3)cc2)c1 (centres undefined),-3,0.57
c1cc(NCc2cccc3[nH]ccc23)cc(Oc2cnccn2)c1,-3,0.59
Fc1cnccc1NCC1CCN(C2CCCC2)CC1,0,-0.05
Cc1cccc(NC2CCN(CCN3CCOC[C@@H]3C)CC2)n1,2,-0.3
COc1ccc(OCc2cc(C(=O)N[C@H]3CCCCNC3=O)no2)c2ccccc12,3,-0.64
C=C1CC23CC4C5C6(C)CC(OC(C)=O)CC57C2C(O)C1C(O)C3(O)C7N4C6 (centres undefined),-15,2.61
Fc1ccccc1OC1CCN(Cc2cccc(OCCN3CCOCC3)c2)CC1,-7,1.53
Oc1nc2cc(Cl)ccc2cc1CN1CC(O)C(Cc2ccnc3ccccc23)C1 (centres undefined),-1,0.15
NC(=O)[C@H](CNc1ncnc2[nH]ccc12)Cc1ccc(F)cc1,21,-3.73
CN(C)[C@H]1CCN(C(=O)c2ccc(-c3ncnc4[nH]ccc34)cc2)C1,-3,0.59
O=C(O)c1cc(NS(=O)(=O)C[C@H]2CCCO2)cc(C(F)(F)F)c1,-6,1.36
N#Cc1c(N)nc2c(c1N)[C@@H](c1ccccc1)c1ccc3ccccc3c1O2,0,-0.08
CC(C)COC(=O)N[C@H]1CN[C@H](C(=O)N2CCN(c3ccncc3)CC2)C1,-10,2.14

SMILES,% Inhibition [%],Z score
COc1cc(C(=O)O)cc(C(=O)N2CC3CC(O)C(O)CC3C2)c1 (centres undefined),3,-0.65
COCCn1ccc(NCc2cccc(-c3ccncc3)c2)n1,-8,1.43
Clc1ccccc1C1(c2ccnc(NCCN3CCCC3)n2)CCNCC1,-11,1.88
Cn1cc(-c2cncc(C(=O)NCCC3CCC(F)(F)CC3)c2)cn1,0,0.03
C[C@H](Nc1cc(C2CCNCC2)ncn1)c1ccc2c(c1)OCCCO2,-2,0.29
CC(=O)N1CCC(N[C@H]2CC(C)(C)[C@@H]3C[C@@](C)(O)CC[C@]23CCC(=O)NCCc2c[nH]c3ccccc23)CC1,4,-0.64
Cc1cc(CC2CN(Cc3cc(F)cc(Cl)c3)CC2O)on1 (centres undefined),-7,1.56
Cc1cccc(OC2CCN(C(=O)c3cc4ccc(Cl)cc4[nH]3)CC2)n1,2,-0.49
Cc1nc(=S)sn1-c1nc(Nc2ccccc2)nc(Nc2ccccc2)n1,-4,0.68
CN(C(=O)CC1CCOC1)C1CS(=O)(=O)c2ccc(Cl)cc21 (centres undefined),-3,0.61
O=C(c1cc(-c2ccc(F)cc2)c[nH]1)N1CC[C@H](Oc2cccc3cccnc23)C1,-12,2.14
O=C(c1ccc(-c2ccncc2)cc1)N1CCC(O)(CN2CCCC2)CC1,-5,1.05
CN1CCN(c2cc(NC3CCC(C(F)(F)F)CC3)ncn2)CC1=O (centres undefined),-13,2.24
Cc1noc(-c2ccc(N[C@@H](C)c3cc(F)ccc3N3CCC(O)CC3)nc2)n1,3,-0.54
CC(CNc1nc(NCC(C)N2CCOCC2)c2cc(Cl)ccc2n1)N1CCOCC1 (centres undefined),78,-13.62
CNc1nc(NCc2cc(C)cc3c(C)c(-c4ccccc4)[nH]c23)ncc1F,-2,0.43
COc1cc2nc(N3CC4CNCC4(CN(C)C)C3)nc(N)c2cc1OC (centres undefined),5,-0.96
Cc1ccc(CCC(=O)Oc2ccc(-c3nncs3)cc2)c(C)c1,-6,1.09
O=C(NCC1CCN(CCN2CCOCC2)CC1)c1ccc(-n2cccn2)cc1,2,-0.31
O[C@@]1(CN2CCCN(CCCc3ccccc3)CC2)CCNC1,-1,0.22
OCC1CCCCCC1NC1CCN(CCC(F)(F)F)CC1 (centres undefined),-7,1.47
O=C1C[C@H](NC(=O)C2CCN(C(=O)C3CCCC3)CC2)c2ccccc2N1,-9,1.55
Cc1ccccc1CN1CCC(CNc2c3c(nc4ccccc24)CCC3)CC1,94,-16.23
COc1ccc(CN2CC[C@@H]2CNC2CCN(CC3CC3)CC2)cc1,11,-2.13
CN(C)C1CCN(CCNC2CCCCCCC2)CC1,2,-0.42
CC(C)N(CCN(C)C)c1ncncc1Br,3,-0.68
